Experimental data from PubChem BioAssay AID2147 (National Center for Advancing Translational Sciences (NCATS), 2009).
Among all 230,000 compounds or so, about 3,600 (1.6%) were called active. Inconclusive results, whose numbers are uncertain, are shown with a selection of clear calls. Calls come from the whole dose curve; as a rule, active = well fitted inhibition curve with a large enough effect (not every such curve was filed as active); inconclusive = small, poorly fitted or top-dose-only effect, or another doubt; inactive = no such curve, though single readings can be large or run the other way. Potencies of inconclusive entries are doubtful fits and often do not repeat. The source holds several records for some structures; these can differ, active in one and inactive in another.

Each molecule was assayed against Lysine-specific demethylase 4E (Homo sapiens) (UniProt B2RXH2) (assay: qHTS Assay for Inhibitors of Human Jumonji Domain Containing 2E (JMJD2E)). Conditions: JMJD2E catalytic domain, FDH-coupled NADH fluorescence (FDH is formaldehyde dehydrogenase); series mostly up to 57.1 µM; activity change, negative = inhibition: at the top concentration.
Sequence of UniProt B2RXH2 (B2RXH2 whole entry, looked up, the tested form may be a part): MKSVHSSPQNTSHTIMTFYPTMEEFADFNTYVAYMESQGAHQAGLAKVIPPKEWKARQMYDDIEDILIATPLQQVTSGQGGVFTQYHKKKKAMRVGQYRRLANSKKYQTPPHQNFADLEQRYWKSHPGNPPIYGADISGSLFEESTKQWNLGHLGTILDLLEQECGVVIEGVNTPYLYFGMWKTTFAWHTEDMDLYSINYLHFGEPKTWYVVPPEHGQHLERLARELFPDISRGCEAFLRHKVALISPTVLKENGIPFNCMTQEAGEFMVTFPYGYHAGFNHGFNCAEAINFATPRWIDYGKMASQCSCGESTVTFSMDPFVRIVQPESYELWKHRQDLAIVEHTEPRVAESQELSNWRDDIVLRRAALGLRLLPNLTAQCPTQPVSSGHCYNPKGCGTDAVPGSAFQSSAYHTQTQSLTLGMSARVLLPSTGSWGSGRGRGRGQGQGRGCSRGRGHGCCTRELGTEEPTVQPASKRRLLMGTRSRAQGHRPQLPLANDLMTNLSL
Note: nearly all actives have a fitted effect of over 50% in size.
Potency is the fitted concentration of half-maximal effect; tags give direction and shape of the fitted curve.
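Throughout, for activity change, negative = inhibition: 0% = wells with enzyme and -100% = buffer wells without enzyme.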

SMILES | activity change, negative = inhibition | Potency
OCCN1CCN(CC/C=C2/c3ccccc3Sc3ccc(C(F)(F)F)cc32)CC1 | inactive: -8.86% | 
COc1ccccc1-c1noc(CCC(=O)Nc2cc(C(F)(F)F)ccc2Cl)n1 | inactive: 4.5% | 
COc1ccc2c(c1)CCc1c-2n[nH]c1C(=O)O |  | inconclusive: 25.1 µM [inhibitor, partial curve]
O=[N+]([O-])c1ccc(O)c(C=Nc2ccc3oc(Cc4ccc(Cl)cc4)nc3c2)c1 |  | inconclusive: 31.6 µM [inhibitor, single point]
COc1cccc(CNC(=O)CCS(=O)(=O)c2cccs2)c1 | inactive: -0.416% | 
Nc1c(C(=O)N2CCOCC2)sc2nc(N3CCOCC3)c3c(c12)CCCC3 |  | inconclusive: 28.2 µM [inhibitor, partial curve]
CCCc1cc(Nc2c(C)n(C)n(-c3ccccc3)c2=O)n2c(nc3ccccc32)c1C#N |  | inconclusive: 22.4 µM [inhibitor, partial curve]
COc1ccc(CCN(Cc2cccs2)S(=O)(=O)c2ccc(-n3cnnn3)c(OC)c2)cc1OC |  | inconclusive: 39.8 µM [inhibitor, single point]
Cc1cccc(Nc2ncnc3nc[nH]c23)c1 | inactive: -1.17% | 
Cc1ccc(-n2ccc(=O)c(-c3ccnc(SCc4cccc(Cl)c4)n3)n2)cc1 |  | inconclusive: 25.1 µM [inhibitor, partial curve]
COc1ccc(COc2cc(-c3cccc(OC)c3)nc3ccc(NC(=O)c4ccc(Cl)cc4)cc23)cc1 |  | inconclusive: 22.4 µM [inhibitor, partial curve]
COc1ccc(OC)c(NS(=O)(=O)c2ccc3c(c2)CCC(=O)N3)c1 | inactive: 6.14% | 
CCOC(=O)c1[nH]c(COC(=O)C2CC(=O)N(Cc3ccccc3)C2)c(C(=O)OCC)c1C (stereo unspecified) | inactive: 0.851% | 
CC1CCN(C(=O)CSc2nnc(-c3cccnc3)n2C2CCCCC2)CC1 | inactive: 1.65% | 
N#Cc1c(-c2ccccc2)ccnc1N1CCOCC1 |  | inconclusive: 31.6 µM [inhibitor, partial curve]
COC(=O)/C(=C\c1ccc(O)cc1)c1nc2ccccc2[nH]1 |  | inconclusive: 17.8 µM [inhibitor, partial curve]
COC(=O)c1ccc2c(=O)n(CCCCCC(=O)N3CCN(c4ccccc4)CC3)c(=O)[nH]c2c1 |  | inconclusive: 35.5 µM [inhibitor, single point]
O=C(CCN1C(=O)c2ccccc2C1=O)NC(=S)Nc1ccccc1Cl | inactive: 1.51% | 
O=C(CCN1C(=O)COc2ccccc21)NCCCN1CCc2ccccc2C1 | inactive: -16.2% | 
Cc1ccc2nc(N3CCN(Cc4nnnn4C4CCCC4)CC3)c(C#N)cc2c1 |  | inconclusive: 39.8 µM [inhibitor, single point]
CC(Sc1nnc(NC2CCCCC2)s1)C(=O)Nc1ccc2c(c1)C(=O)c1ccccc1C2=O (stereo unspecified) | inactive: -8.09% | 
CCOC(=O)N1CCN(C(=O)Nc2ccc3nc(C)sc3c2)CC1 |  | inconclusive: 25.1 µM [inhibitor, single point]
O=S(=O)(c1ccccc1)c1ncc(C(F)(F)F)cc1O |  | inconclusive: 25.1 µM [inhibitor, partial curve]
CCN(CC)CCC(=O)Nc1ccc2c(c1)N(C(=O)CN(CC)CC)c1ccccc1CC2 |  | inconclusive: 35.5 µM [inhibitor, single point]

SMILES | activity change, negative = inhibition | Potency
COc1cc(C)c(NC(=S)Nc2cccc(Cl)c2C)cc1OC |  | inconclusive: 2.51 µM [inhibitor, full curve]
c1coc(-c2nc3ccccc3nc2-c2ccco2)c1 |  | inconclusive: 28.2 µM [inhibitor, partial curve]
O=C1C(Cc2ccc3[nH]ccc3c2)NC(=S)N1c1ccccc1 (stereo unspecified) |  | inconclusive: 39.8 µM [inhibitor, single point]
O=C(O)COc1ccc(-c2nccc(-c3cccs3)n2)cc1 |  | inconclusive: 31.6 µM [inhibitor, partial curve]
Cc1cc(C)nc(SCc2nnc(SCC(=O)Nc3ccccc3C)n2Cc2ccco2)n1 | inactive: 2.64% | 
Fc1cc2[nH]c(=S)[nH]c2cc1Cl | inactive: -19.4% | 
O=c1cc(N2CCc3ccccc32)[nH]c(=O)n1Cc1ccc(F)cc1 |  | inconclusive: 31.6 µM [inhibitor, partial curve]
COc1ccccc1OCCC(=O)OCC(=O)Nc1cc(S(=O)(=O)N(C)C)ccc1Cl | inactive: -16.3% | 
NNC(=O)c1ccc(Cn2cc(Br)cn2)cc1 |  | inconclusive: 39.8 µM [inhibitor, single point]
COc1c(F)c(F)c(C(=O)Nc2ccc3oc(-c4ccncc4)nc3c2)c(F)c1F |  | inconclusive: 25.1 µM [inhibitor, partial curve]
Cc1cc(CN(C)C(=O)c2cc(COc3ccc(F)cc3Cl)on2)n[nH]1 | inactive: 4.65% | 
Cc1ccccc1NC(=O)c1ccc(Cl)c(NC(=O)c2ccncc2)c1 | inactive: 4.34% | 
N#Cc1c(-c2cccnc2)c2c([nH]c1=O)-c1ccccc1OC2 |  | inconclusive: 8.91 µM [inhibitor, full curve]
O=C(O)c1cc2ncc(CCO)cn2n1 |  | inconclusive: 28.2 µM [inhibitor, single point]
S=c1nc(-c2ccccc2Cl)[nH][nH]1 |  | inconclusive: 31.6 µM [inhibitor, single point]
O=c1c2cnn(-c3ccccc3)c2ncn1Cc1ccccc1 |  | inconclusive: 28.2 µM [inhibitor, single point]
C=CCN1C(=O)CN=C1Nc1ccc(F)cc1 |  | inconclusive: 6.31 µM [inhibitor, single point]
Cc1ccc(CNC(=O)c2coc(=O)c3ccccc23)o1 | inactive: -4.65% | 
CCOc1ccccc1C(=O)n1nc(C)cc1C |  | inconclusive: 39.8 µM [inhibitor, single point]
COc1cccc(-c2cc3nc4c(c(N5CCC6(CC5)OCCO6)n3n2)CCC4)c1 |  | inconclusive: 35.5 µM [inhibitor, single point]
CCOC(=O)C1=C(C)OC(N)=C(C#N)C1c1cccs1 (stereo unspecified) |  | inconclusive: 39.8 µM [inhibitor, single point]
O=C(/C=C/c1ccc(O)c(O)c1)c1ccc(S(=O)(=O)N2CCCCCC2)cc1 |  | active: 28.2 µM
Clc1ccc(/C=N/Nc2ncnc3ccccc23)cc1Cl | inactive: -1.22% | 
COc1ccc(C(NC(=O)C(C)C)c2ccc3cccnc3c2O)cc1 (stereo unspecified) |  | active: 28.2 µM

SMILES | activity change, negative = inhibition | Potency
CC1=NN(C(=O)c2csc(C(C)C)c2)C(O)(C(F)(F)F)C1 (stereo unspecified) |  | inconclusive: 7.08 µM [inhibitor, single point]
COC(=O)[C@@]1(Cc2ccc(F)cc2)[C@@H]2[C@@H](CC(=O)[C@H]2CC(=O)C(=O)N(C)C)CN1C(=O)c1ccccc1 |  | active: 15.8 µM
CCCc1nc2c(=O)n(C)c(=O)nc-2n(C)n1 |  | inconclusive: 1.26 µM [inhibitor, full curve, poor fit]
Cc1cc(C)n2cc(CSc3nc4cc(Cl)ccc4o3)nc2n1 |  | inconclusive: 12.6 µM [inhibitor, single point]
O=C(c1ccco1)N1CCN(C(=O)c2ccc(COc3ccc4c(c3)CCC4)o2)CC1 | inactive: -7.43% | 
CC1CCCC(NC(=O)COC(=O)c2ccccc2NC(=O)c2ccco2)C1C (stereo unspecified) |  | inconclusive: 3.55 µM [inhibitor, single point]
CSc1nnc(C)c(=O)n1COC(=O)/C=C/c1ccc2c(c1)OCO2 |  | inconclusive: 25.1 µM [inhibitor, partial curve]
CCCCCn1c(=O)c(-c2nc3ccccc3[nH]2)c(O)c2ccccc21 |  | inconclusive: 3.55 µM [inhibitor, full curve]
CCOC(=O)C1CCCN(C(=O)c2cccc([N+](=O)[O-])c2C)C1 (stereo unspecified) | inactive: 0.269% | 
COc1ccc(C)cc1-n1nnnc1SCc1nc2ccccc2c(=O)[nH]1 |  | inconclusive: 39.8 µM [inhibitor, single point]
COc1ccc(-c2cc(C(F)(F)F)nc(-n3ccnc3)n2)cc1 |  | inconclusive: 7.94 µM [inhibitor, partial curve]
C(=N\n1cnnc1)/c1cccn1-c1ccccc1 | inactive: -13.1% | 
Cc1ccc(N=C2NC(=O)/C(=C/c3cccn3C)S2)c(C)c1 | inactive: -17.8% | 
Nn1c(SCc2cccc(C(F)(F)F)c2)nnc1-c1ccco1 | inactive: -8.57% | 
COc1c(F)c(F)c(C(=O)Nc2ccc(-c3nc4ccccc4[nH]3)cc2)c(F)c1F |  | inconclusive: 15.8 µM [inhibitor, partial curve]
CCn1c2ccccc2c2cc(NC(=O)COC(=O)Cc3cn4ccsc4n3)ccc21 |  | inconclusive: 35.5 µM [inhibitor, single point]
O=C(Nc1nnc(SCc2ccccc2)s1)c1cc2c(s1)CCCC2 |  | inconclusive: 5.62 µM [inhibitor, full curve]
CCC(C)[C@H](NC(=O)OC(C)(C)C)C(=O)N/N=C/c1cccc2nccnc12 (stereo partly specified) |  | inconclusive: 35.5 µM [inhibitor, single point]
CC(C)CC(N=Cc1c(O)c2ccccc2oc1=O)C(=O)O (stereo unspecified) | inactive: 1.84% | 
O=C1c2ccccc2N2C(=O)c3ccccc3C2N1O (stereo unspecified) |  | inconclusive: 39.8 µM [inhibitor, single point]
O=C(C1CCCCC1)N(Cc1nc2sc3c(c2c(=O)[nH]1)CCCC3)Cc1cccs1 |  | inconclusive: 35.5 µM [inhibitor, single point]
CCOc1ccc(NCc2cc3c(C(C)(C)C)nn(-c4ccccc4)c3[nH]c2=O)cc1 |  | inconclusive: 20 µM [inhibitor, partial curve]
COC(=O)C1=C(C)NC(C)=C(C(=O)OC)C1C(=O)OC(C)C(=O)c1ccccc1 (stereo unspecified) |  | inconclusive: 39.8 µM [inhibitor, single point]
